Data: the antibiotic and cytotoxicity screens of Wong et al. (2023)
Some of the results follow.

How the values were obtained:
HSkMC = human skeletal muscle cells; assay: cytotoxicity call (relative viability < 0.9); conditions: 10 µM
HepG2 = assay: cytotoxicity call (relative viability < 0.9); conditions: 10 µM
S. aureus RN4220 = assay: growth inhibition call (relative growth <= 0.2); conditions: 50 µM

| SMILES | cytotoxicity call (HSkMC) | cytotoxicity call (HepG2) | growth inhibition call (S. aureus RN4220) |
| --- | --- | --- | --- |
| COc1ccc2c(c1)OCc1c-2oc2cc(OC)ccc12 | inactive | inactive | inactive |
| C[C@H]1CN([C@@H](C)CO)S(=O)(=O)c2ccc(-c3cccnc3)cc2O[C@H]1CN(C)C(=O)NC1CCCCC1 | inactive | inactive | inactive |
| C[C@@H]1CN([C@H](C)CO)C(=O)c2cccc(NC(=O)Nc3cccc4ccccc34)c2O[C@H]1CN(C)C(=O)NC1CCCCC1 | inactive | inactive | inactive |
| NC[C@@H](CO)Cc1ccsc1 | inactive | inactive | inactive |
| Nc1c(O)cccc1C(=O)C[C@H](N)C(=O)O | inactive | inactive | inactive |
| COc1ccc(-c2cn(CCCNC(=O)[C@H](Cc3ccccc3)NS(=O)(=O)c3ccc(C)cc3)nn2)cc1OC | inactive | inactive | inactive |
| O=C(O)c1ccccc1Nc1cccc(C(F)(F)F)c1 | inactive | inactive | inactive |
| COc1ccc(NC(=O)Nc2ccc3c(c2)C(=O)N([C@@H](C)CO)C[C@@H](C)[C@@H](CN(C)C(=O)Nc2ccc(C(F)(F)F)cc2)OCCCC[C@@H](C)O3)cc1 | inactive | inactive | inactive |
| O=C(O)c1ccc(OC[C@@H](O)CO[C@H](COc2ccc(C(=O)O)cc2)Cn2c3ccccc3c3ccccc32)cc1 | inactive | inactive | inactive |
| C[C@H]1CN([C@@H](C)CO)C(=O)c2cccc(NS(=O)(=O)c3ccccc3)c2O[C@H]1CN(C)S(=O)(=O)c1ccccc1 | inactive | inactive | inactive |
| O=C(C[C@@H]1C[C@H]2c3cc(NC(=O)c4ccc5c(c4)OCO5)ccc3O[C@H]2[C@H](CO)O1)NCc1cccnc1 | inactive | inactive | inactive |
| Cc1noc(C)c1NC(=O)Nc1ccc2c(c1)C(=O)N([C@@H](C)CO)C[C@H](C)[C@@H](CN(C)Cc1ccncc1)OCCCC[C@H](C)O2 | inactive | inactive | inactive |
| COc1ccc2c3c(n(c2c1)C)[C@H](CO)N(C[C@]13CCN(CC1)Cc1ccncc1)C(=O)CN1CCOCC1 | inactive | inactive | inactive |
| Cc1cccc(S(=O)(=O)N2C[C@@H](O)COC[C@H]3O[C@@H](CC(=O)NCCCN4CCOCC4)CC[C@@H]32)c1 | inactive | inactive | inactive |
| CC(C)NC(=O)Nc1ccc2c(c1)CC(=O)N([C@@H](C)CO)C[C@H](C)[C@H](CN(C)S(=O)(=O)c1cn(C)cn1)O2 | inactive | inactive | inactive |
| C[C@H](CO)N1C[C@H](C)[C@H](CN(C)Cc2ccc(C(=O)Nc3ccccc3N)cc2)Oc2ccc(NS(=O)(=O)c3cn(C)cn3)cc2CC1=O | inactive | inactive | inactive |
| COc1ccc(NC(=O)Nc2ccc3c(c2)C(=O)N([C@H](C)CO)C[C@H](C)[C@H](CN(C)C(=O)Nc2ccc(C(F)(F)F)cc2)OCCCC[C@@H](C)O3)cc1 | inactive | inactive | inactive |
| CCOC(=O)N(C)C[C@@H]1OCc2cn(nn2)CCCC(=O)N([C@@H](C)CO)C[C@@H]1C | inactive | inactive | inactive |
| C[C@@H]1CCCCO[C@H](CN(C)Cc2ccc(Cl)c(Cl)c2)[C@@H](C)CN([C@H](C)CO)C(=O)c2cc(NC(=O)Cc3ccccc3)ccc2O1 | inactive | active | inactive |
| C=CCOC(=O)[C@@H]1[C@H]2C(=O)O[C@H](c3ccccc3)[C@H](c3ccccc3)N2[C@H](c2ccc(OCCOC(=O)[C@H]3C[C@H]4C(=O)N[C@@H](Cc5ccccc5)C(=O)N4[C@H]3c3ccc(O)cc3)cc2)[C@@]12C(=O)Nc1ccc(I)cc12 | inactive | inactive | inactive |
| C[C@H]1CCCCO[C@H](CN(C)C(=O)Nc2ccc(F)cc2)[C@@H](C)CN([C@@H](C)CO)C(=O)c2cc(NS(=O)(=O)c3ccc(F)cc3)ccc2O1 | inactive | active | inactive |
| O=C(N[C@H]1CC[C@H](CCNS(=O)(=O)c2ccc(F)cc2)O[C@H]1CO)C1CC1 | inactive | inactive | inactive |
| COc1ccccc1CNC(=O)C[C@@H]1C[C@@H]2c3cc(NC(=O)C4CCOCC4)ccc3O[C@@H]2[C@H](CO)O1 | inactive | inactive | inactive |
| C[C@H](CO)N1C[C@H](C)[C@@H](CN(C)Cc2ccc(C(=O)Nc3ccccc3N)cc2)Oc2c(NC(=O)c3nc4ccccc4s3)cccc2C1=O | inactive | active | inactive |
| Cc1noc(C)c1NC(=O)Nc1ccc2c(c1)C(=O)N([C@H](C)CO)C[C@H](C)[C@H](CN(C)C(=O)Nc1ccc(F)cc1)OCCCC[C@@H](C)O2 | inactive | inactive | inactive |
| COc1ccc(C#Cc2ccc3c(c2)[C@]2(C(=O)N3)[C@H](C(=O)N3CCCCCCC3)[C@H]3C(=O)O[C@H](c4ccccc4)[C@H](c4ccccc4)N3[C@@H]2c2ccc(O)cc2)cc1 | inactive | active | inactive |
| C[C@@H]1CN([C@@H](C)CO)C(=O)c2cc(NC(=O)NC3CCCCC3)ccc2O[C@@H](C)CCCCO[C@H]1CN(C)CC1CCCCC1 | inactive | active | inactive |

| SMILES | cytotoxicity call (HSkMC) | cytotoxicity call (HepG2) | growth inhibition call (S. aureus RN4220) |
| --- | --- | --- | --- |
| CCn1cnc(C(=O)NC)c1C(=O)NC | inactive | inactive | inactive |
| Cc1ccc(S(=O)(=O)Nc2ccc3c(c2)C(=O)N([C@H](C)CO)C[C@@H](C)[C@H](CN(C)Cc2ccc(C(=O)O)cc2)OCCCC[C@@H](C)O3)cc1 | inactive | inactive | inactive |
| COc1cccc(C(=O)NCC(=O)O)c1 | inactive | inactive | inactive |
| CCOC(=O)[C@H]1[C@@H]2C(=O)N3CCC[C@H]3[C@H](O[Si](C(C)C)(C(C)C)C(C)C)[C@H]2C=C2CCN(S(=O)(=O)c3ccc(C)cc3)C[C@H]21 | inactive | inactive | inactive |
| COCC#Cc1ccc2c(c1)O[C@@H](CN(C)C(=O)Nc1ccccc1F)[C@H](C)CN([C@@H](C)CO)S2(=O)=O | inactive | inactive | inactive |
| COc1ccc(NC(=O)N(C)C[C@H]2OCCCC[C@@H](C)Oc3ccc(NS(=O)(=O)c4ccccc4)cc3C(=O)N([C@H](C)CO)C[C@@H]2C)cc1 | inactive | inactive | inactive |
| N#CCC(=O)NCc1ccccn1 | inactive | inactive | inactive |
| COC(=O)[C@H](Cc1ccc(N=[N+]=[N-])cc1)N1CC2=C[C@@H](C3CC3)n3c(=O)n(C)c(=O)n3[C@H]2[C@@H]1[C@@H](O)Cc1ccccc1 | inactive | inactive | inactive |
| CCCCC[C@H]1C[C@H](O[C@H]2O[C@@H](CO)[C@@H](O)[C@@H](O)[C@@H]2O)CC(=O)O1 | inactive | inactive | inactive |
| C[C@@H]1CN([C@@H](C)CO)C(=O)c2cccc(NS(C)(=O)=O)c2O[C@@H]1CN(C)S(=O)(=O)c1cn(C)cn1 | inactive | inactive | inactive |
| Cc1ccc(NC(=O)COc2ccc(S(=O)(=O)N3CCOCC3)cc2)cc1S(=O)(=O)N1CCCCCC1 | inactive | inactive | inactive |
| CC(C)NC(=O)N[C@@H]1C=C[C@H](CC(=O)NCCN2CCCC2)O[C@@H]1CO | inactive | inactive | inactive |
| Cc1csc2c(Cl)ncnc12 | inactive | inactive | inactive |
| Cc1cccc(O)c1 | inactive | inactive | inactive |
| O=C(COc1ccccc1)Nc1nn[nH]n1 | inactive | inactive | inactive |
| COc1ccc(S(=O)(=O)N(C)C[C@H]2Oc3c(NS(=O)(=O)c4ccc(F)cc4)cccc3C(=O)N([C@H](C)CO)C[C@@H]2C)cc1 | inactive | inactive | inactive |
| C[C@H]1CN([C@@H](C)CO)C(=O)Cc2cc(NC(=O)Cc3ccccc3)ccc2O[C@@H]1CN(C)S(=O)(=O)c1cccs1 | inactive | inactive | inactive |
| COc1cccc(S(=O)(=O)N(C)C[C@@H]2Oc3ncc(C#Cc4ccccc4)cc3C(=O)N([C@H](C)CO)C[C@@H]2C)c1 | inactive | inactive | inactive |
| C[C@@H]1CCCCO[C@@H](CN(C)C(=O)CCCN(C)C)[C@H](C)CN([C@H](C)CO)C(=O)c2cc(NC(=O)Nc3ccc(C(F)(F)F)cc3)ccc2O1 | inactive | inactive | inactive |
| C[C@@H]1CCCCO[C@@H](CN(C)Cc2ccncc2)[C@@H](C)CN([C@H](C)CO)C(=O)c2cc(NC(=O)Cc3ccccc3)ccc2O1 | inactive | inactive | inactive |
| C=CCOC(=O)[C@H]1[C@@H]2C(=O)O[C@@H](c3ccccc3)[C@@H](c3ccccc3)N2[C@@H](c2ccc(OCCOC(=O)[C@@H]3C[C@@H]4C(=O)N[C@@H](CCCC[N+](C)(C)C)C(=O)N4[C@@H]3c3ccc(O)cc3)cc2)[C@]12C(=O)Nc1ccc(I)cc12 | inactive | inactive | inactive |
| CC(C)NC(=O)N(C)C[C@@H]1Oc2ccc(NS(=O)(=O)c3ccc(Cl)cc3)cc2C(=O)N([C@@H](C)CO)C[C@@H]1C | inactive | inactive | inactive |
| CCOC(=O)[C@H]1C/C=C/C[C@H](C(=O)OCC)C(=O)O[C@H]2[C@@H](OC)O[C@H](CO)[C@@H](OC(=O)Nc3cccc(F)c3)[C@@H]2OC1=O | active | active | inactive |
| C[C@@H]1CN([C@@H](C)CO)S(=O)(=O)c2ccc(-c3ccc(F)cc3)cc2O[C@@H]1CN(C)S(C)(=O)=O | inactive | inactive | inactive |
| Cc1ccc(S(=O)(=O)Nc2ccc3c(c2)C(=O)N([C@@H](C)CO)C[C@H](C)[C@@H](CN(C)Cc2ccc(C(=O)O)cc2)OCCCC[C@H](C)O3)cc1 | inactive | inactive | inactive |
| C[C@H]1CCCCO[C@H](CN(C)Cc2ccc(C(F)(F)F)cc2)[C@@H](C)CN([C@@H](C)CO)C(=O)c2cc(NC(=O)C3CCCCC3)ccc2O1 | inactive | active | inactive |
| O=C(O)C=Cc1ccc(O)c(O)c1 | inactive | inactive | inactive |
